# This is one part of the list.
# B1: Epa23 (Candida glabrata) (protein)
# chain: MGSSHHHHHHSSGLVPRGSHMIPNPFEGTINNFPSGCSPNHGLYNRGLTMELYNYSYIHPQSIQSYFNTSTLKKMEKGQCWDPSYLDVNYPRTGYKTHNRFAKVNGIDGILDFEFNPTRSCVPSKGQLPQNYNYPLQFTLSNFTMLLYGYFKPKVTAKHTFTIFADDLLFLNFGAGNAFDCCQQQDTIDDFGNYQAYALWGSDTQQNTLTVNLDANIYYPIRMFYNNRDFKGALNMYFTTDESNTKINDFSGYLFNIPDSSEGCPAHISYETECGNVSG
# Experiments:
# Assay in all cases: glycan array binding signal (z-score within array); higher = stronger binding
# Settings in all cases: glycan notation: IUPAC condensed, linker removed
# GalNAc(b1-4)GlcNAc = target: GalNAc(b1-4)GlcNAc
# Method in brief: (§1)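 From the Consortium for Functional Glycomics database, 3228 arrays were curated, keeping only those whose protein sequence was available. Binding is given as a within-array Z-score averaged across arrays sharing a protein sequence and across linkers. Negative Z-scores can be read as non-binding.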
# [1] = target: GalNAc(b1-4)GlcNAc(b1-2)Man
# Method in brief: as §1
# [2] = target: GalNAc(b1-4)GlcNAc(b1-2)Man(a1-3)[GalNAc(b1-4)GlcNAc(b1-2)Man(a1-6)]Man(b1-4)GlcNAc(b1-4)GlcNAc
# Method in brief: as §1
# [3] = target: GalNAc(b1-4)GlcNAc(b1-3)GalNAc(b1-4)GlcNAc
# Method in brief: as §1
# GalNAc(b1-4)GlcNAc6S = target: GalNAc(b1-4)GlcNAc6S
# Method in brief: as §1
# GalNAc(b1-6)GalNAc = target: GalNAc(b1-6)GalNAc
# Method in brief: as §1
# GalNAc3S(b1-4)GlcNAc = target: GalNAc3S(b1-4)GlcNAc
# Method in brief: as §1
# GalNAc3S(b1-4)GlcNAc3S = target: GalNAc3S(b1-4)GlcNAc3S
# Method in brief: as §1
# [4] = target: GalNAc3S(b1-4)[Fuc(a1-3)]GlcNAc
# Method in brief: as §1
# GalNAc4S6S(b1-4)GlcNAc = target: GalNAc4S6S(b1-4)GlcNAc
# Method in brief: as §1
# GalNAc6S(b1-4)GlcNAc = target: GalNAc6S(b1-4)GlcNAc
# Method in brief: as §1
# Glc(a1-4)Glc = target: Glc(a1-4)Glc
# Method in brief: as §1
# [5] = target: Glc(a1-4)Glc(a1-4)Glc(a1-4)Glc
# Method in brief: as §1
# Glc(a1-6)Glc(a1-6)Glc = target: Glc(a1-6)Glc(a1-6)Glc
# Method in brief: as §1
# [6] = target: Glc(a1-6)Glc(a1-6)Glc(a1-6)Glc
# Method in brief: as §1
# Glc(b1-4)Glc = target: Glc(b1-4)Glc
# Method in brief: as §1
# Glc(b1-6)Glc = target: Glc(b1-6)Glc
# Method in brief: as §1
# GlcA(b1-3)Gal = target: GlcA(b1-3)Gal
# Method in brief: as §1
# GlcA(b1-3)GlcNAc = target: GlcA(b1-3)GlcNAc
# Method in brief: as §1
# GlcA(b1-6)Gal = target: GlcA(b1-6)Gal
# Method in brief: as §1
# [7] = target: GlcA3S(b1-3)Gal(b1-4)GlcNAc(b1-2)Man
# Method in brief: as §1
# [8] = target: GlcA3S(b1-3)Gal(b1-4)GlcNAc(b1-3)Gal(b1-4)Glc
# Method in brief: as §1
# [9] = target: GlcNAc(a1-3)Gal(b1-4)GlcNAc
# Method in brief: as §1
# [10] = target: GlcNAc(a1-4)Gal(b1-3)GlcNAc
# Method in brief: as §1
# [11] = target: GlcNAc(a1-4)Gal(b1-4)GalNAc
# Method in brief: as §1
# [12] = target: GlcNAc(a1-4)Gal(b1-4)GlcNAc
# Method in brief: as §1
# [13] = target: GlcNAc(a1-4)Gal(b1-4)GlcNAc(b1-3)Gal(b1-4)Glc
# Method in brief: as §1
# [14] = target: GlcNAc(a1-4)Gal(b1-4)GlcNAc(b1-3)Gal(b1-4)GlcNAc
# Method in brief: as §1
# [15] = target: GlcNAc(a1-4)Gal(b1-4)GlcNAc(b1-3)Gal(b1-4)GlcNAc(b1-3)Gal(b1-4)GlcNAc
# Method in brief: as §1
# [16] = target: GlcNAc(a1-4)Gal(b1-4)GlcNAc(b1-3)Gal(b1-4)[Fuc(a1-3)]GlcNAc(b1-3)Gal(b1-4)[Fuc(a1-3)]GlcNAc
# Method in brief: as §1
# [17] = target: GlcNAc(a1-6)Gal(b1-4)GlcNAc
# Method in brief: as §1
# [18] = target: GlcNAc(b1-2)Gal(b1-3)GalNAc
# Method in brief: as §1
# [19] = target: GlcNAc(b1-2)Man(a1-3)[GlcNAc(b1-2)Man(a1-6)]Man(b1-4)GlcNAc(b1-4)GlcNAc
# Method in brief: as §1
# [20] = target: GlcNAc(b1-2)Man(a1-3)[GlcNAc(b1-2)Man(a1-6)]Man(b1-4)GlcNAc(b1-4)[Fuc(a1-6)]GlcNAc
# Method in brief: as §1
# [21] = target: GlcNAc(b1-2)Man(a1-3)[GlcNAc(b1-4)][GlcNAc(b1-2)Man(a1-6)]Man(b1-4)GlcNAc(b1-4)GlcNAc
# Method in brief: as §1
# [22] = target: GlcNAc(b1-2)Man(a1-3)[GlcNAc(b1-4)][GlcNAc(b1-2)Man(a1-6)]Man(b1-4)GlcNAc(b1-4)[Fuc(a1-6)]GlcNAc
# Method in brief: as §1
# [23] = target: GlcNAc(b1-2)[GlcNAc(b1-4)]Man(a1-3)[GlcNAc(b1-2)Man(a1-6)]Man(b1-4)GlcNAc(b1-4)GlcNAc
# Method in brief: as §1
binder,measurement,setting,value
B1,glycan array binding signal (z-score),GalNAc(b1-4)GlcNAc,-0.168
same,glycan array binding signal (z-score),[1],-0.241
same,glycan array binding signal (z-score),[2],-0.266
same,glycan array binding signal (z-score),[3],-0.241
same,glycan array binding signal (z-score),GalNAc(b1-4)GlcNAc6S,-0.236
same,glycan array binding signal (z-score),GalNAc(b1-6)GalNAc,-0.203
same,glycan array binding signal (z-score),GalNAc3S(b1-4)GlcNAc,-0.23
same,glycan array binding signal (z-score),GalNAc3S(b1-4)GlcNAc3S,-0.202
same,glycan array binding signal (z-score),[4],-0.264
same,glycan array binding signal (z-score),GalNAc4S6S(b1-4)GlcNAc,-0.142
same,glycan array binding signal (z-score),GalNAc6S(b1-4)GlcNAc,-0.222
same,glycan array binding signal (z-score),Glc(a1-4)Glc,-0.258
same,glycan array binding signal (z-score),[5],-0.233
same,glycan array binding signal (z-score),Glc(a1-6)Glc(a1-6)Glc,-0.218
same,glycan array binding signal (z-score),[6],-0.278
same,glycan array binding signal (z-score),Glc(b1-4)Glc,-0.305
same,glycan array binding signal (z-score),Glc(b1-6)Glc,-0.206
same,glycan array binding signal (z-score),GlcA(b1-3)Gal,-0.208
same,glycan array binding signal (z-score),GlcA(b1-3)GlcNAc,-0.249
same,glycan array binding signal (z-score),GlcA(b1-6)Gal,-0.128
same,glycan array binding signal (z-score),[7],-0.204
same,glycan array binding signal (z-score),[8],-0.21
same,glycan array binding signal (z-score),[9],-0.22
same,glycan array binding signal (z-score),[10],-0.263
same,glycan array binding signal (z-score),[11],-0.164
same,glycan array binding signal (z-score),[12],-0.235
same,glycan array binding signal (z-score),[13],-0.241
same,glycan array binding signal (z-score),[14],-0.127
same,glycan array binding signal (z-score),[15],-0.257
same,glycan array binding signal (z-score),[16],-0.08
same,glycan array binding signal (z-score),[17],0.812
same,glycan array binding signal (z-score),[18],-0.243
same,glycan array binding signal (z-score),[19],-0.245
same,glycan array binding signal (z-score),[20],-0.234
same,glycan array binding signal (z-score),[21],-0.208
same,glycan array binding signal (z-score),[22],-0.283
same,glycan array binding signal (z-score),[23],-0.21
